Laboratory results taken from PubChem BioAssay AID1508623 (National Center for Advancing Translational Sciences (NCATS), 2021).
Screen size: about 48,000 compounds; about 450 (0.94%) were called active. Another 19% or so got no clear call; they are omitted. Calls follow the shape of the dose curve; as a rule, active = well fitted inhibition curve with a large enough effect; inconclusive = small, poorly fitted or top-dose-only effect; inactive = no such curve, though single readings can be large or run the other way. The list shows a part of the results.

Experiment: Primary qHTS for Identification of Small Molecule Inhibitors of Huntingtin Promoter Activity; also: nearly all actives have a fitted effect of over 50% in size
Settings: HEK293 HTT promoter firefly luciferase reporter (activity 0% = vehicle and -100% = no light), 24 h; series mostly up to 57.5 µM; activity change, negative = inhibition: at the top concentration
Procedure, shortened: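 Firefly luciferase signal from promoter-reporter HEK293 cells was scaled between vehicle (0%) and zero RLU (-100%). Compounds were tested at final concentrations of up to 57.5 uM over 24 h at 37 degrees C. PTC124 at 50 uM final served as control inhibitor.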

Activity change, negative = inhibition, inactive:
COc1ccccc1CNC(=O)c1cnc2sc(N3CCCCCC3)nn2c1=O -9.12%
O=c1c2ccccc2n(Cc2ccccc2F)c(=O)n1-c1cccc(F)c1 -23.9%
Cc1ccc(C(=O)Nc2onc3c2CCCC3)cc1 56.3%
CSc1ccc(CNC(=O)CCn2c(=O)c3cccn3c3ccc(F)cc32)cc1 -8.05%
Cc1ccccc1C(=O)Nc1ccc2c(c1)CCCN2C(=O)c1cccs1 -27.9%
COc1ccc(C(=O)N2CCC(c3nc(-c4ccc(S(=O)(=O)N5CCCC5)cc4)no3)CC2)cc1 -18.3%
COC(=O)c1cc2occc2n1Cc1cccc(C)c1 -21.6%
COCCNC(=O)CCN1C(=O)c2cccnc2Oc2ccc(C)cc21 3.6%
Cc1ccc(-n2nc(C(=O)Nc3ccc(C)c(F)c3)c3c4ccccc4n(C)c3c2=O)cc1 -15.8%
CC(=O)Nc1nonc1-c1nnc(SCC(=O)Nc2ccc(C)c(Cl)c2)n1-c1ccccc1 -10.8%
CCOc1ccc(C(=O)c2cnc3ccc(Cl)cc3c2S(=O)(=O)c2ccc(C)cc2)cc1 -11.9%
CCc1ccccc1Nc1nc2cc(Cl)c(Cl)cc2nc1-n1nc(C)cc1C -13.8%
Cc1ccc(-n2nc(CO)c(C(=O)NCCCc3ccccc3)n2)cc1 -9.16%
Cc1ccc(-n2ncc3c(Nc4ccccc4C)ncnc32)cc1 63.9%
COc1cccc(Cn2c(NCc3ccc(C)cc3)nc3c2c(=O)n(C)c(=O)n3C)c1 9.08% [at 11.5 µM]
CC(=O)c1ccc(NC(=O)c2ccc(-c3nc(COc4ccc(C)cc4)c(C)o3)cc2)cc1 -26%
CC[C@]12CCCN3CCc4c(n(c5ccccc45)[C@@](O)(C(=O)OC)C1)[C@@H]32 6.84%
Cc1nn(-c2ccc3nnc(C)n3n2)c(C)c1CCC(=O)Nc1ccc(OC(F)(F)F)cc1 -6.67%
COc1ccc(-c2cn3nc(N4CCCC(C(=O)NCc5ccccc5OC)C4)sc3n2)cc1 (configuration not stated) 31.5%
COC(=O)c1cc(-c2ccc(OC)c(OC)c2)c2c(=O)[nH]c(=O)n(C)c2n1 -2.72%
CCC(=O)N1CCc2cc(S(=O)(=O)NC(CC(C)C)C(=O)NCc3ccc(F)cc3)ccc21 (configuration not stated) -12.9%
Cc1ccc(NC(=O)Cn2c(=O)n(Cc3nc(C)no3)c(=O)c3cc4c(cc32)OCO4)c(Cl)c1 0.851%
Cc1cccc(C)c1NC(=O)Cn1c(=O)n(Cc2ccco2)c(=O)c2ccc(C(=O)NC3CCCC3)cc21 -13.7%
Cc1ccc(S(=O)(=O)c2nc(-c3ccco3)oc2SCC(=O)Nc2ccc(F)cc2)cc1 -15.1%
O=C(CCn1c(=O)c2sccc2n(Cc2cccc(F)c2)c1=O)NCc1ccc2c(c1)OCO2 -0.201%
COc1ccc(NC(=O)CCc2c(C)nc3nc(CNC(=O)OC(C)(C)C)nn3c2C)cc1OC -4.74%
O=C(Nc1ccc(F)c(Cl)c1)C1CCCN(c2cnccn2)C1 (configuration not stated) -11.1%
COc1ccc(CC2C(=O)Nc3ccc(Br)cc32)cc1OC (configuration not stated) -12.9%
CCc1ccccc1NC(=O)N1CCN(C(=O)c2nsc3ccccc23)CC1 -5.76%
CC(=O)N1CCCC1c1nc2ccccc2n1Cc1ccccc1C (configuration not stated) -11.6%
CC1CCN(S(=O)(=O)c2ccc3c(ccn3CCC(=O)NCc3ccc(N(C)C)cc3)c2)CC1 -19.1%
CCNc1nc(NC(C)(C)C)nc(Oc2ccc(=O)n(C)n2)n1 9.7%
O=C(NCCc1ccccc1)C(=O)NCC(c1ccc2c(c1)OCO2)N1CCOCC1 (configuration not stated) -13.9%
COc1cc(NC(=O)CC(C)n2nc(C)cc2C)cc(OC)c1 (configuration not stated) -1.36%
Cc1ccc(-c2nnc3ccccc3c2C(=O)Nc2ccccc2F)cc1 51.6%
CCOc1ccccc1C(=O)N(Cc1ccccc1F)C1CCS(=O)(=O)C1 (configuration not stated) -6.18%
COc1cc(NC(=O)C(CCSC)NS(=O)(=O)c2ccc3c(c2)oc(=O)n3C)cc(OC)c1 (configuration not stated) -29.9%
Cc1ccc(-n2c(=O)c3c(c4cc(C)ccc4n3C)n(CC(=O)NCc3ccccc3)c2=O)cc1 -5.83%
CCN1CCc2nc3sc(C(=O)c4ccc(F)cc4)c(N)c3cc2C1 -13.8%
COc1ccccc1NC(=O)CSc1nc(-c2ccccc2F)nc2cc(=O)[nH]n12 -5.51%
COc1ccc(NC(=O)c2c(NCc3cccc(OC)c3)sc3c2CCCC3)cc1 -25.5%
Cc1ccc2occ(CC(=O)N(Cc3ccc(C(C)C)cc3)C3CCS(=O)(=O)C3)c2c1 (configuration not stated) -26.4%
CC(C)(C)c1ccc(C(=O)N2CCC(c3nc4ccccc4o3)CC2)cc1 -24%
O=C(CCC1N=C2c3ccccc3N=C(SCc3ccccc3F)N2C1=O)NCc1ccc(F)cc1 (configuration not stated) -11.4%
COc1ccc(-c2onc(C)c2C)cc1S(=O)(=O)NCC1CCN(Cc2cccc(F)c2)CC1 -34.7%
CC1=C(c2ccc(Cl)cc2)S(=O)(=O)N=C1N1CCC(C(=O)NCc2ccccc2F)CC1 -21%
COc1ccc(CCNc2nc3c(-c4cccc(C)c4)nnn3c3ccccc23)cc1OC -23.9%
COc1ccc(CNC(=O)Cn2c(=O)cc(-c3ccccc3)c3c(C)nn(C)c32)cc1 -28.7%
COc1ccc(S(=O)(=O)N(CC(=O)Nc2cccnc2)c2ccc(Cl)cc2)cc1 -26.2%
CCOc1ccccc1CNC(=O)c1cccn1-c1nnc(N2CCCC2)s1 -44.4%
CCc1ccc2oc(C(=O)Nc3ccccc3C(=O)OC)cc(=O)c2c1 -12.9% [at 11.5 µM]
CC(CCc1ccc(O)cc1)NCCc1ccc(O)c(O)c1 (configuration not stated)
CCCNS(=O)(=O)Nc1ncnc(OCCOc2ncc(Br)cn2)c1-c1ccc(Br)cc1 15.9%
Cc1ccccc1CSc1cn(CC(=O)N2CCCCCC2)c2ccccc12 -5.75%
Cc1cccn2c(=O)c(C(=O)NCCc3ccc(S(N)(=O)=O)cc3)c(O)nc12 -5.82%
O=C(CCOc1ccccc1)N(Cc1cccnc1)c1nc2c(F)cccc2s1 8.81%
COc1ccc(CNC(=O)COCc2cc(-c3cccs3)on2)cc1 -9.55%
O=C(O)Cn1ccc2cc(S(=O)(=O)N3CCCCCC3)ccc21 -2.48%
Cc1ccccc1CSc1nc2ccsc2c(=O)n1CCC(C)C 5.01%
CC1C(=O)N2CCCc3cc(S(=O)(=O)N4CCC(C(N)=O)CC4)cc1c32 (configuration not stated) -19%
COc1ccccc1NC(=O)c1oc2ccccc2c1NC(=O)C1CCCCC1 -7.73%
Cc1ccc2cc(CN(C(=O)c3cccc(Cl)c3)c3ccccc3)c(=O)[nH]c2c1 -19.4%
